Each structure is given as a SMILES string. Among all 45,000 compounds or so, about 65 (0.1%) were called active. Calls come from the whole dose curve; as a rule, active = well fitted activation curve with a large enough effect; inconclusive = small, poorly fitted or top-dose-only effect; inactive = no such curve, though single readings can be large or run the other way. Some of the results follow.

54 molecules from PubChem BioAssay AID1159614 (National Center for Advancing Translational Sciences (NCATS), 2016) can be followed below.

The assay concerns the target Galactocerebrosidase (Homo sapiens) (UniProt P54803). The assay can be described thus: A Novel Cell-Based Assay to Identify Small Molecules for B -Galactocerebrosidase. Note: 0% is about no effect; nearly all actives have a fitted effect of over 65% in size. The note with it: 145M-Twi-hGALC-G270D cells (Twitcher mouse brain line with human GALC G270D), HMU-beta-Gal fluorescence, 48 h; activation: at the top concentration. An excerpt: Lysosomal storage diseases (LSDs) are caused by genetic mutations in genes encoding proteins important for normal lysosomal function. Globoid cell leukodystrophy (GLD), mostly known as Krabbe disease, is a prototype of the neurological LSDs caused by deficiency of beta-galactocerebrosidase (GALC). In brain specimens of GLD patients, psychosine levels are substantially elevated. At elevated concentrations, psychosine becomes cytotoxic to neuronal cells, particularly to oligodendrocytes (OLG), neural cells responsible for myelin formation. Therefore, the biochemical disturbances in GLD are manifested by different degrees of brain demyelination resulting in a broad spectrum of neurological manifestations. Most of the FDA-approved therapies are based on enzyme replacement therapeutic (ERT) agents, which treat non-neurological symptoms of Gaucher disease, Fabry disease, few mucopolysaccharidoses and Pompe disease. Unfortunately, in GLD, a primarily neurological LSD, ERT agents, as large molecular weight molecules unable to cross the blood-brain barrier, which makes this an inefficacious therapeutic approach. In GLD, increasing the residual GALC activity just above the critical threshold (~10% of wild type enzymatic activity), the cytotoxic levels of psychosine will be reduced, avoiding the OLGs apoptosis and the subsequent demyelination process. This will translate in disease stabilization and amelioration of GLD patient symptoms.
Chain of UniProt P54803 (P54803 whole entry, looked up): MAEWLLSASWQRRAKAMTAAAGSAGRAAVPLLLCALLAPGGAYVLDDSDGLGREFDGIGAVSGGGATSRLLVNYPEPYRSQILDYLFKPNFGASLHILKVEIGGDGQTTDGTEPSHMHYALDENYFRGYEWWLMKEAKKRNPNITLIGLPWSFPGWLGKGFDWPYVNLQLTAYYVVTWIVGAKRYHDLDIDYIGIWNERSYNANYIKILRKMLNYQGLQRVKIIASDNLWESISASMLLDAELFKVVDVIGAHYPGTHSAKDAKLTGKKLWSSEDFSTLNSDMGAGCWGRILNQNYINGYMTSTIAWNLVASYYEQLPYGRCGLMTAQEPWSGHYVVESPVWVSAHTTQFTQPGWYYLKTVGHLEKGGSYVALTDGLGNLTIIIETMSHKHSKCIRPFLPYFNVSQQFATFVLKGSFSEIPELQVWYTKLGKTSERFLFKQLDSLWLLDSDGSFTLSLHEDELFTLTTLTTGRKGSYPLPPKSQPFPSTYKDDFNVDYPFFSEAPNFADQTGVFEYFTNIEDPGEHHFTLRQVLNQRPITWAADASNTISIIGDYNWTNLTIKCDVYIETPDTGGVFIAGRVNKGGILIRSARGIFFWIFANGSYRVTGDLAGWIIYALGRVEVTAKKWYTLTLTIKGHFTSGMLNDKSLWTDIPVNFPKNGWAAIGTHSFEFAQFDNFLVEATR
A cell-based assay in 1,536-well plate format was developed to implement a quantitative high-throughput screening (qHTS) assay using GLD-disease relevant cells to identify small molecules that produce enhancements of the residual enzymatic activity levels of mutants GALC found and prevalent in GLD patients. Compounds that are active may therefore have some therapeutic application for GLD. After the treatment of live cells for a determined period, using a fluorescent GALC specific substrate, the mutant residual GALC activity is measured. This cell-based qTHS assay was used to screen part of the MLPCN library for small molecule able to increase the mutant GALC enzymatic activity. In this assay, increased fluorescent signal corresponds to enhanced levels of mutant GALC residual enzymatic activity. Activation is the desired outcome for this assay.
NIH Chemical Genomics Center [NCGC]
NIH Molecular Libraries Probe Centers Network [MLPCN]
Assay Submitter (PI): Gustavo Maegawa MD,PhD, University of Florida, Gainesville, FL
2)#Two cell lines were established for the assay: 145M-Twi-hGALC-G270D (brain-derived Twitcher cell line stably expressing human GALC-G270D) and 145M-Twi-hGALC-WT (same 145M-Twi stably expressing human GALC wild type). The Twitcher is the murine C57B/6 model for GLD with naturally occurring homozygous nonsense GALC mutation. The 145M-Twi cell line was established at Maegawa lab (Ribbens J et al 2014).
a.#Media: DMEM/F12 (1:1) with 10% fetal bovine-serum (FBS) with penicillin/streptomycin (PS-1X - 100 I.U./mL of penicillin+100 ug/mL of streptomycin).
b.#The 6-Hexadecanoylamino-4-methylumbelliferyl-b-D-galactoside (HMU-B-gal) substrate was prepared as per Wiederschain et al 1992. Using 20-mL borosilicate tubes, 2.20 mg of HMU-b-Gal was added in each tube to prepare substrate-film with a final air-nitrogen stream evaporation to remove all diluent solvents.
c.#The HMUb-Gal substrate buffer consists of 0.2 M Na2HPO4 (sodium phosphate dibasic)/ 0.1 M Citric Acid with the pH adjusted to 5.2 using HCl. Sodium Azide at 0.02% and Sodium Taurocholate (NaTC) at 1 mg/mL were added to this substrate buffer.
d.#The HMU-b-Gal stopping buffer consist of 0.5 M NaHCO3 (sodium bicarbonate) /0.5 M Na2CO3 (sodium carbonate). […] Triton X-100 at 0.25% was added.
4)#Preparation of HMU-b-Gal substrate tubes
Adding 18.6 mL of the HMUb-Gal substrate buffer to each 20-mL tube (2.20 mg of HMU-b-Gal) will reach a concentration of 0.2 mM. Vortex well the tube until the solution is fully homogenized (clear cloudy solution). […]
Take `Cc1ccc(NC(=O)c2cccn(Cc3ccccc3C)c2=O)c(C)c1`: the “activation” value was inactive: -15.2%. Next, `COc1cc(N)c(Cl)cc1C(=O)NC1CN2CCC1CC2` (centres undefined): inactive: -11.3%. Next, `Clc1ccc(C(c2ccc(Cl)cc2)C(Cl)(Cl)Cl)cc1`: inactive: -9.92%; `Fc1cc(Br)ccc1CBr`: inactive: -11.2%. Turning to `NN=C(N)N`, the “activation” value is inactive: -7.41%.

For the molecule `COc1cc(OC)c(OC)cc1C=O`, the “activation” value is inactive: -8.18% [at 114 µM].

Consider `Nc1c(Cl)c(Cl)c(Cl)c(Cl)c1Cl`, for which the “activation” value was inactive: -4.67% [at 114 µM]. As for `NC(=O)OCCCc1ccccc1`, the “activation” value was inactive: -17.9%. As for `CC(C)c1nn2c(=O)cc(COC(=O)Cc3ccccc3)nc2s1`, the “activation” value was inactive: -8.34%. The value for `OC(c1ccccc1)(c1ccccc1)C1CCNCC1` was inactive: -17.5%; that for `C[C@]12CCC(=O)C=C1CC[C@@H]1[C@@H]2CC[C@]2(C)C(=O)CC[C@@H]12` was inactive: -9.52%.

Turning to `O=C1CN=C(c2ccccc2Cl)c2cc(Cl)ccc2N1Cc1cccc(Cl)c1`, the “activation” value is inactive: -36.8%. As for `COc1ccc(-n2c(/C=C\c3ccccc3F)nc3ccccc3c2=O)cc1OC`, the “activation” value is inactive: -14.8%.

On to `CC(O)CN1CCN(CC(=O)[O-])CCN(CC(=O)[O-])CCN(CC(=O)[O-])CC1.[Gd+3]` (centres undefined), for which the “activation” value was inactive: -17%. The value for `Nc1c(C(=O)Nc2ccc(Cl)c(C(F)(F)F)c2)sc2nc3c(cc12)N1CCC3CC1` was inactive: -17.8%; that for `COc1cccc(-n2c(/C=C/c3ccccc3O)nc3ccccc3c2=O)c1` was inactive: -5.21%; that for `CCCCC/C=C\C/C=C\C/C=C\C/C=C\CCCC(=O)NCC(=O)O` was inactive: -14.7%. In the case of `O=C(CBr)Nc1ccc(Cl)cc1C(=O)c1ccccc1F`, the “activation” value was inactive: -6.82%. Turning to `O=C(N[C@H]1N=C(c2ccccc2F)c2cccc3c2N(CC3)C1=O)c1cc2ccccc2[nH]1`, the “activation” value was inactive: -16.1%. Regarding `CN1C2CCC(C)(C)C1CC(OC(=O)C(O)(c1cccs1)c1cccs1)C2` (centres undefined), the “activation” value was inactive: -18.1%. Next, `CCCC(C)(COC(N)=O)COC(=O)NC(C)C` (centres undefined): inactive: -13.3%; `Cc1ccc(NC(=O)CN2C(=O)CN=C(c3ccccc3)c3ccccc32)cc1`: inactive: -20.6%.

Turning to `CCCC1CCCCN1` (centres undefined), the “activation” value was inactive: -6.4%.

On to `CCCCCc1nc2ccccc2c(=O)n1-c1ccc(C)cc1`, for which the “activation” value was inactive: -11%.

`Cc1ccccc1-n1nc(C)c2c1NC(=O)CSC2c1ccc(N(C)C)cc1` (centres undefined): the “activation” value is inactive: -6.6%.

With `CN1CC[C@]23c4c5ccc(O)c4O[C@H]2[C@@H](O)CC[C@H]3[C@H]1C5`, the “activation” value was inactive: -4.42% [at 114 µM]. The value for `Cc1ccc(CN2C(=O)c3ccccc3Sc3ccc(C(=O)N4CCC5(CC4)OCCO5)cc32)cc1` was inactive: -0.133%.

Regarding `CCN(Cc1ccc(Cl)nc1)/C(=C/[N+](=O)[O-])NC`, the “activation” value was inactive: -15%. The value for `Cc1ccccc1Cn1cccc(C(=O)Nc2nc3ccccc3s2)c1=O` was inactive: -26.1%. With `CO[C@]12CC[C@@]3(C[C@@H]1[C@](C)(O)C(C)(C)C)[C@@H]1Cc4ccc(O)c5c4[C@@]3(CCN1CC1CC1)[C@H]2O5`, the “activation” value was inactive: -6.73% [at 114 µM]. Next, `CCC(=O)O[C@H]1CC[C@H]2[C@@H]3CCC4=CC(=O)CC[C@]4(C)[C@H]3CC[C@]12C`: inactive: -6.6%; `COc1cccc([C@@]2(O)CCCC[C@@H]2CN(C)C)c1`: inactive: -9.36%. Regarding `CCCCc1nn2c(=O)cc(COC(=O)Cc3ccccc3)nc2s1`, the “activation” value was inactive: -3.57%. Next, `C[C@@H]1CN(C2CCC(C#N)(c3ccc(F)cc3)CC2)CC[C@]1(C(=O)O)c1ccccc1` (some centres undefined): inactive: -6.17%. Take `C=Cc1ccc(Cn2c(C)c(CNCCc3cc(OC)ccc3OC)c(C(=O)O)c2C)cc1`: the “activation” value is inactive: -8.4%.

For the molecule `CCN1CCCC1CNC(=O)C(O)(c1ccccc1)c1ccccc1` (centres undefined), the “activation” value is inactive: -16.1%. Next, `CCC1(CC)C(=O)NC(=O)NC1=O`: inactive: -6.02%; `C[C@]12CC[C@H]3[C@@H](CCC4=CC(=O)CC[C@@H]43)[C@@H]1CC[C@@H]2OC(=O)CCC1CCCCC1`: inactive: -12.7%. Next, `O=C(CCCN1CCC(n2c(=O)[nH]c3ccccc32)CC1)c1ccc(F)cc1`: inactive: -7.12%. Next, `O=C(Nc1cc(C(F)(F)F)cc(C(F)(F)F)c1)c1cccn(Cc2ccccc2Cl)c1=O`: inactive: -8.46%; `CC(C)(C)c1ccc(C(=O)Nc2ccc(Cl)cc2C(=O)c2ccccc2)cc1`: inactive: 5.9%; `CCc1cc2c(s1)-n1c(C)nnc1CN=C2c1ccccc1Cl`: inactive: -10.4%.

Turning to `CC(C(O)c1ccccc1)N(C)C/C=C/c1ccccc1` (centres undefined), the “activation” value was inactive: -26.4%.

For the molecule `Cc1cccc(Cc2cnc[nH]2)c1C`, the “activation” value is inactive: -6.88%.

Turning to `CN1C(=O)CCS(=O)(=O)C1c1ccc(Cl)cc1` (centres undefined), the “activation” value was inactive: -18.2%.

In the case of `NC(=O)CS(=O)C(c1ccccc1)c1ccccc1` (centres undefined), the “activation” value is inactive: -10.8%. Next, `O=C(COc1cc(Cl)ccc1Cl)Nc1ccc(Cl)cc1C(=O)c1ccccc1`: inactive: -0.867%; `CC(C)(C)CC(C)(C)c1ccc(O)cc1`: “inactive”. The value for `O=P1(N(CCCl)CCCl)NCCCO1` (centres undefined) was inactive: -8.07%; that for `c1ccc2c(c1)sc1ccccc12` was inactive: -15.5%; that for `Cc1cccc(CN2CC=C(c3noc(CCC(=O)Nc4ccc(C)c(F)c4)n3)CC2)c1` was inactive: -7.9%. Turning to `COc1ccc(NC(=O)c2sc3nc4c(cc3c2N)N2CCC4CC2)cc1OC`, the “activation” value was inactive: 1.53%. Turning to `CCCCCCCCCC(CC)c1ccc(S(=O)(=O)O)cc1` (centres undefined), the “activation” value is inactive: -8.02% [at 114 µM]. Next, `Oc1ccccc1-c1ccccc1`: inactive: -13%.
